Experimental data: the supplement of paper PMC6451100
The list shows a part of the results. Values come from read counts of a selection and are noisy.

target: T1, Drosophila AGO2 (FLAG-tagged, S2-R+ lysate) (UniProt Q9VUQ5); test: AGO2 loading enrichment factor (IP read count / input read count, not library-size normalised) (ratio); higher = more efficient loading into AGO2; details: randomized region: 5' 5N of miR-317 loop
T1 sequence: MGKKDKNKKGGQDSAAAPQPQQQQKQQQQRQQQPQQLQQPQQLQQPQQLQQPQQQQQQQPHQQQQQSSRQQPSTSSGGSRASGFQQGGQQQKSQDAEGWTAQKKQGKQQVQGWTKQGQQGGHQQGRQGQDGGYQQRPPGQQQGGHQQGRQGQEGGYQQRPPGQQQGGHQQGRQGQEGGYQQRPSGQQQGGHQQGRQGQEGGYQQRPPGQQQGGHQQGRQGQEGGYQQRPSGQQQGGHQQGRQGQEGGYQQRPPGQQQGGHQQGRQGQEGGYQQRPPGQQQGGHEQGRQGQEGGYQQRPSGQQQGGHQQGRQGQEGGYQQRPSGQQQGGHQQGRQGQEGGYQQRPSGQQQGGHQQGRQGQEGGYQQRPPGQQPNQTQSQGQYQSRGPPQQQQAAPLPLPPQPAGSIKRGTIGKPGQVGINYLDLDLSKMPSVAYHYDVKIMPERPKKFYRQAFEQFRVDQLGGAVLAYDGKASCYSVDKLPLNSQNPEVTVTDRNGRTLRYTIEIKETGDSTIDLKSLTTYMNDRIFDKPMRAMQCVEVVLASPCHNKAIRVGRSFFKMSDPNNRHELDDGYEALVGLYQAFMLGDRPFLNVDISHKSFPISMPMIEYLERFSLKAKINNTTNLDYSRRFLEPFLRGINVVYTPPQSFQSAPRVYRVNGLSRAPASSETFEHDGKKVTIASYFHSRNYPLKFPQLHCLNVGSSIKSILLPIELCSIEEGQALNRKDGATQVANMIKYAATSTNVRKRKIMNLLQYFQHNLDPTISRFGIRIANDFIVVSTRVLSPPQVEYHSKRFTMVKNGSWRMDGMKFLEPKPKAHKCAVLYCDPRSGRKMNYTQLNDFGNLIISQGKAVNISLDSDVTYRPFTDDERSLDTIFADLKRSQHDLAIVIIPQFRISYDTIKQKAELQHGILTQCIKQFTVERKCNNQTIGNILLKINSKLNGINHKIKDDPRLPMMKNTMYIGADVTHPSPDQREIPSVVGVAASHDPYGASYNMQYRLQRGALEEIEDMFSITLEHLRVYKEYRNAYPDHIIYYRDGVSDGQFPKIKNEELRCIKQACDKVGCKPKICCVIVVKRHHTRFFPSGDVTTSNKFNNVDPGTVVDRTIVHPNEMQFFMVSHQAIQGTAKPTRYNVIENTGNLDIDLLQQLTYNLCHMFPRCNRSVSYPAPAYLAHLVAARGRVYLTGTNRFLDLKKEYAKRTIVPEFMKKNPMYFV
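Note: Per-sequence enrichment computed with FASTAptamer, counting only reads that carry the expected constant 3′ region.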

Sequence	AGO2 loading enrichment factor
CGGGTTGAAATGCAAGCAAG	1.44
TTTAATGAAATGCAAGCAAG	0.499
CTACTTGAAATGCAAGCAAG	0.467
CCCCTTGAAATGCAAGCAAG	0.353
GTTAATGAAATGCAAGCAAG	0.387
GTCTTTGAAATGCAAGCAAG	0.365
CCCCATGAAATGCAAGCAAG	0.298
CGACATGAAATGCAAGCAAG	0.368
AGAGTTGAAATGCAAGCAAG	0.391
CGGCTTGAAATGCAAGCAAG	0.481
ACGAGTGAAATGCAAGCAAG	0.444
TCCGCTGAAATGCAAGCAAG	0.175
CGAGCTGAAATGCAAGCAAG	0.103
GGTCTTGAAATGCAAGCAAG	0.0925
ACGGATGAAATGCAAGCAAG	0.889
GAATATGAAATGCAAGCAAG	0.455
TCTCGTGAAATGCAAGCAAG	0.281
GCGCTTGAAATGCAAGCAAG	0.159
ATGTGTGAAATGCAAGCAAG	0.381
ACCTGTGAAATGCAAGCAAG	0.135
TGGCTTGAAATGCAAGCAAG	0.426
ACCATTGAAATGCAAGCAAG	0.491
ACGCTTGAAATGCAAGCAAG	0.418
AGCATTGAAATGCAAGCAAG	0.133
TACCGTGAAATGCAAGCAAG	0.391

Sequence	AGO2 loading enrichment factor
GCGACTGAAATGCAAGCAAG	0.348
CGAAATGAAATGCAAGCAAG	0.456
GTATCTGAAATGCAAGCAAG	0.507
TACCCTGAAATGCAAGCAAG	0.275
TGACTTGAAATGCAAGCAAG	0.11
ACATTTGAAATGCAAGCAAG	0.369
GTAGGTGAAATGCAAGCAAG	1.28
GAAGTTGAAATGCAAGCAAG	0.415
GGTTCTGAAATGCAAGCAAG	0.603
TTAGCTGAAATGCAAGCAAG	0.249
CTGTTTGAAATGCAAGCAAG	0.483
GTGGTTGAAATGCAAGCAAG	1.08
CGAATTGAAATGCAAGCAAG	0.444
AGGGGTGAAATGCAAGCAAG	8.13
CACTGTGAAATGCAAGCAAG	0.222
GGCTATGAAATGCAAGCAAG	0.4
CTACCTGAAATGCAAGCAAG	0.375
TGTCATGAAATGCAAGCAAG	0.392
GGATCTGAAATGCAAGCAAG	0.734
CTTCTTGAAATGCAAGCAAG	0.4
CACAATGAAATGCAAGCAAG	0.499
CGGTCTGAAATGCAAGCAAG	0.716
GCCTCTGAAATGCAAGCAAG	0.0935
TTACGTGAAATGCAAGCAAG	0.724
ATGACTGAAATGCAAGCAAG	0.527

Sequence	AGO2 loading enrichment factor
GTCGGTGAAATGCAAGCAAG	2.19
GTGGGTGAAATGCAAGCAAG	5.72
AAGTGTGAAATGCAAGCAAG	0.339
CCGGGTGAAATGCAAGCAAG	1.91
ACTATTGAAATGCAAGCAAG	0.359
TGTTGTGAAATGCAAGCAAG	0.849
GTCTCTGAAATGCAAGCAAG	0.677
TTCCGTGAAATGCAAGCAAG	0.74
CAGAATGAAATGCAAGCAAG	0.36
GTAGATGAAATGCAAGCAAG	0.555
CGATATGAAATGCAAGCAAG	0.5
CTCCGTGAAATGCAAGCAAG	0.786
GACCGTGAAATGCAAGCAAG	0.54
GAGGGTGAAATGCAAGCAAG	4.74
GCGGCTGAAATGCAAGCAAG	0.0765
GGGCTTGAAATGCAAGCAAG	0.582
CAACATGAAATGCAAGCAAG	0.425
CCCATTGAAATGCAAGCAAG	0.333
CCATCTGAAATGCAAGCAAG	0.674
CCTATTGAAATGCAAGCAAG	0.521
TCATGTGAAATGCAAGCAAG	0.444
ACCGTTGAAATGCAAGCAAG	0.371
CGTGCTGAAATGCAAGCAAG	0.298
CGACTTGAAATGCAAGCAAG	0.154
CGCCCTGAAATGCAAGCAAG	0.275

Sequence	AGO2 loading enrichment factor
GTGTGTGAAATGCAAGCAAG	0.401
TCATTTGAAATGCAAGCAAG	0.524
ATGGATGAAATGCAAGCAAG	0.778
ATTCGTGAAATGCAAGCAAG	0.341
TTTTGTGAAATGCAAGCAAG	0.674
CCAATTGAAATGCAAGCAAG	0.33
TTCCTTGAAATGCAAGCAAG	0.72
CACGATGAAATGCAAGCAAG	0.331
CGATGTGAAATGCAAGCAAG	0.316
GGTCCTGAAATGCAAGCAAG	1.28
TTGACTGAAATGCAAGCAAG	0.645
ACGTATGAAATGCAAGCAAG	0.5
GAGTGTGAAATGCAAGCAAG	0.365
TTTGGTGAAATGCAAGCAAG	0.614
AAAGTTGAAATGCAAGCAAG	0.301
AAATGTGAAATGCAAGCAAG	0.249
GAGGATGAAATGCAAGCAAG	2.37
CGGCATGAAATGCAAGCAAG	0.276
GCAGATGAAATGCAAGCAAG	0.185
ATTACTGAAATGCAAGCAAG	0.458
CCTCCTGAAATGCAAGCAAG	0.237
TAGCCTGAAATGCAAGCAAG	0.215
ACCGCTGAAATGCAAGCAAG	0.13
GCCTTTGAAATGCAAGCAAG	0.264
TCCACTGAAATGCAAGCAAG	0.475

Sequence	AGO2 loading enrichment factor
CTTACTGAAATGCAAGCAAG	0.0344
AGGCCTGAAATGCAAGCAAG	0.425
GATCCTGAAATGCAAGCAAG	0.627
CGTGATGAAATGCAAGCAAG	0.374
CCCTGTGAAATGCAAGCAAG	0.263
AACCATGAAATGCAAGCAAG	0.607
GCATTTGAAATGCAAGCAAG	0.0369
TTGTTTGAAATGCAAGCAAG	0.157
CGGACTGAAATGCAAGCAAG	0.761
ATCTATGAAATGCAAGCAAG	0.416
GCTTTTGAAATGCAAGCAAG	0.0717
AAGGATGAAATGCAAGCAAG	0.892
ACCCCTGAAATGCAAGCAAG	0.2
TTCAATGAAATGCAAGCAAG	0.461
GGGGGTGAAATGCAAGCAAG	12.9
TGTGCTGAAATGCAAGCAAG	0.288
AGAACTGAAATGCAAGCAAG	0.487
GGCGATGAAATGCAAGCAAG	0.753
CTGCCTGAAATGCAAGCAAG	1.05
GATTGTGAAATGCAAGCAAG	0.168
GGTCATGAAATGCAAGCAAG	0.75
GCGCGTGAAATGCAAGCAAG	0.0959
CCACCTGAAATGCAAGCAAG	0.223
TCAAGTGAAATGCAAGCAAG	0.455
CATTGTGAAATGCAAGCAAG	0.12

Sequence	AGO2 loading enrichment factor
GAAATTGAAATGCAAGCAAG	0.346
CCTGTTGAAATGCAAGCAAG	0.323
ACCTCTGAAATGCAAGCAAG	0.189
GACGTTGAAATGCAAGCAAG	0.401
GACATTGAAATGCAAGCAAG	0.349
TACGCTGAAATGCAAGCAAG	0.13
AAAATTGAAATGCAAGCAAG	0.372
GGTCGTGAAATGCAAGCAAG	3.67
CCTAATGAAATGCAAGCAAG	0.296
ACATCTGAAATGCAAGCAAG	0.465
AACTCTGAAATGCAAGCAAG	0.371
AAACCTGAAATGCAAGCAAG	0.314
GAGGCTGAAATGCAAGCAAG	0.207
GCATATGAAATGCAAGCAAG	0.0855
TCAGTTGAAATGCAAGCAAG	0.326
GGAGTTGAAATGCAAGCAAG	2.23
CAAGTTGAAATGCAAGCAAG	0.236
AATAATGAAATGCAAGCAAG	0.388
ACTAATGAAATGCAAGCAAG	0.357
TCAGCTGAAATGCAAGCAAG	0.202
GAGTCTGAAATGCAAGCAAG	0.417
AGTTGTGAAATGCAAGCAAG	0.33
GGTGCTGAAATGCAAGCAAG	0.34
TATTGTGAAATGCAAGCAAG	0.224
AAATCTGAAATGCAAGCAAG	0.317

Sequence	AGO2 loading enrichment factor
CATAATGAAATGCAAGCAAG	0.374
GTTCGTGAAATGCAAGCAAG	0.251
GGGTCTGAAATGCAAGCAAG	2.55
TGGATTGAAATGCAAGCAAG	0.512
GGTACTGAAATGCAAGCAAG	0.636
TCAACTGAAATGCAAGCAAG	0.385
GATCATGAAATGCAAGCAAG	0.482
GTATGTGAAATGCAAGCAAG	0.289
TGCGTTGAAATGCAAGCAAG	0.192
ATGTATGAAATGCAAGCAAG	0.368
GATGGTGAAATGCAAGCAAG	2.1
GAGTATGAAATGCAAGCAAG	0.47
AACATTGAAATGCAAGCAAG	0.346
TGGTATGAAATGCAAGCAAG	0.465
GGGGCTGAAATGCAAGCAAG	1.13
GTCCTTGAAATGCAAGCAAG	0.679
AGAATTGAAATGCAAGCAAG	0.379
CGCATTGAAATGCAAGCAAG	0.259
GGCTTTGAAATGCAAGCAAG	0.27
GAACATGAAATGCAAGCAAG	0.404
AAGGGTGAAATGCAAGCAAG	1.88
GACTTTGAAATGCAAGCAAG	0.248
TAAACTGAAATGCAAGCAAG	0.373
TTCGCTGAAATGCAAGCAAG	0.246
ATTGTTGAAATGCAAGCAAG	0.33

Sequence	AGO2 loading enrichment factor
ATACATGAAATGCAAGCAAG	0.483
GGCACTGAAATGCAAGCAAG	0.386
ATCGCTGAAATGCAAGCAAG	0.147
CGGTATGAAATGCAAGCAAG	0.44
CAAGATGAAATGCAAGCAAG	0.325
TGTGGTGAAATGCAAGCAAG	0.659
AATACTGAAATGCAAGCAAG	0.298
GCATGTGAAATGCAAGCAAG	0.0342
GCAACTGAAATGCAAGCAAG	0.208
AGATGTGAAATGCAAGCAAG	0.317
GTAGTTGAAATGCAAGCAAG	0.411
AATCATGAAATGCAAGCAAG	0.448
TTCCCTGAAATGCAAGCAAG	0.631
CATGTTGAAATGCAAGCAAG	0.175
TAGACTGAAATGCAAGCAAG	0.279
CAGGGTGAAATGCAAGCAAG	1.58
ACAGTTGAAATGCAAGCAAG	0.376
AGTTATGAAATGCAAGCAAG	0.383
ACGGCTGAAATGCAAGCAAG	0.155
GAATTTGAAATGCAAGCAAG	0.433
GACCATGAAATGCAAGCAAG	0.68
TCTGATGAAATGCAAGCAAG	0.374
